# “And” between values parts separate entries of the source, which are not always exact repeats. Identical values can stand only once. Counter-ions that a name gives are not always drawn. Out of some 5,800 compounds screened, about 620 (11%) showed activity.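 The calls were made as follows: active = score above a cut-off or among the top three wells of a plate; in these data no inactive exceeds 0.85.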 The entries are a selection whose mix differs from that of the whole data set.
# Test system: primary human hepatic stellate cells (donor 1)
# Assay: scaled lipid accumulation score (0 = DMSO-like, 1 = nortriptyline-like); higher = stronger HSC inactivation (lipid re-accumulation), active = hit call of the paper
# Details: 48 h
# Experimental: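 Primary lipid accumulation screen in primary human hepatic stellate cell myofibroblasts (donor 1, passage 8) in 384-well plates. 100 nL of library compound was pin-transferred into 30 µL medium in duplicate, and cells were treated for 48 h. The 'Scaled' score combines distance from plate baseline, toxicity and reproducibility penalties, and is normalised to nortriptyline (positive) and DMSO (negative) controls on each plate. A hit is defined as scaled >0.85 or among the top 3 wells per plate.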
# [1] = library stock concentration: 3.33 mM
# [2] = library stock concentration: 10 mM
# [3] = library stock concentration: 1 mM
# [4] = library stock concentration: 5.3 mM
# [5] = library stock concentration: 2 mM
structure (smiles),measurement,setting,value
O=C(Nc1ccccc1Br)N[C@@H]1CCN(c2ccc(C(F)(F)F)cn2)C1,scaled lipid accumulation score,[1],inactive: ≤ 0
same,scaled lipid accumulation score,[2],inactive: ≤ 0
"O=C(O)c1ccc2c(c1)CCCC2 [5,6,7,8-tetrahydro-2-Naphthoic Acid]",scaled lipid accumulation score,[3],inactive: ≤ 0
NC(=O)[C@@H]1CCCN1C(=O)[C@H](Cc1c[nH]cn1)NC(=O)[C@@H]1CCC(=O)N1,scaled lipid accumulation score,[2],inactive: ≤ 0
O=C(NOCC(O)CO)c1cc(Br)c(F)c(F)c1Nc1ccc(I)cc1F (stereo not given),scaled lipid accumulation score,[1],inactive: 0.02
same,scaled lipid accumulation score,[2],inactive: ≤ 0
CN(C)CC(c1ccc(O)cc1)C1(O)CCCCC1 (stereo not given) [Desvenlafaxine Succinate],scaled lipid accumulation score,[1],inactive: ≤ 0
same,scaled lipid accumulation score,[2],inactive: ≤ -0.001
CN(C)CC(c1ccc(O)cc1)C1(O)CCCCC1 (stereo not given),scaled lipid accumulation score,[2],inactive: ≤ 0
CN(C)CC(c1ccc(O)cc1)C1(O)CCCCC1 (stereo not given) [Desvenlafaxine],scaled lipid accumulation score,[1],inactive: ≤ 0
same,scaled lipid accumulation score,[2],inactive: ≤ -0.001
Fc1ccc([C@@H]2CCNC[C@H]2COc2ccc3c(c2)OCO3)cc1 [Paroxetine HCl],scaled lipid accumulation score,library stock concentration: 6.1 mM,active: 1.01
O=[N+]([O-])c1cccc2c[nH]nc12,scaled lipid accumulation score,[2],inactive: ≤ 0
Cl.Fc1ccc([C@@H]2CCNC[C@H]2COc2ccc3c(c2)OCO3)cc1 [Paroxetine Hydrochloride],scaled lipid accumulation score,,active: 1.22
CC(C)(C)NCC(O)COc1cccc2[nH]c(=O)[nH]c12 (stereo not given),scaled lipid accumulation score,[2],inactive: ≤ -0.047
C#CCC(Cc1cnc2nc(N)nc(N)c2n1)c1ccc(C(=O)N[C@@H](CCC(=O)O)C(=O)O)cc1 (stereo not given in full) [Pralatrexate],scaled lipid accumulation score,[1],inactive: ≤ 0
same,scaled lipid accumulation score,[2],inactive: ≤ 0
O=C(c1ccccc1)c1ccc2n1CCC2C(=O)O (stereo not given) [Ketorolac (tromethamine salt)],scaled lipid accumulation score,[3],inactive: ≤ 0
O=C(c1ccccc1)c1ccc2n1CCC2C(=O)O (stereo not given) [Ketorolac tromethamine],scaled lipid accumulation score,,inactive: ≤ 0
same,scaled lipid accumulation score,[4],inactive: ≤ 0
same,scaled lipid accumulation score,[2],inactive: 0.024
O=C(c1ccccc1)c1ccc2n1CCC2C(=O)O (stereo not given),scaled lipid accumulation score,[2],inactive: ≤ 0
O=C(c1ccccc1)c1ccc2n1CCC2C(=O)O (stereo not given) [Ketorolac tris salt],scaled lipid accumulation score,[2],inactive: ≤ -0.055
O=C(c1ccccc1)c1ccc2n1CCC2C(=O)O (stereo not given) [Ketorolac],scaled lipid accumulation score,[1],inactive: ≤ 0
same,scaled lipid accumulation score,[2],inactive: ≤ 0
CCOC(=O)[C@@](C)(N)Cc1ccc(O)c(O)c1 [Methyldopate hydrochloride],scaled lipid accumulation score,,inactive: ≤ 0
same,scaled lipid accumulation score,library stock concentration: 7.3 mM,inactive: ≤ 0
COc1c(N2CCNC(C)C2)c(F)cc2c(=O)c(C(=O)O)cn(C3CC3)c12 (stereo not given) [Gatifloxacin],scaled lipid accumulation score,[4],inactive: ≤ 0
same,scaled lipid accumulation score,[2],inactive: ≤ -0.027 and inactive: ≤ 0
CCN(CC)CCCC(C)Nc1nc(C)cc(Nc2ccc3nc(C)cc(N)c3c2)n1 (stereo not given),scaled lipid accumulation score,[1],inactive: ≤ -0.009
same,scaled lipid accumulation score,[2],inactive: 0.217 and inactive: 0.086
OCc1ccccc1O [Salicyl alcohol],scaled lipid accumulation score,[2],inactive: ≤ 0
same,scaled lipid accumulation score,library stock concentration: 16.1 mM,inactive: ≤ 0
O=c1[nH]cnc2c1ncn2[C@@H]1O[C@H](CO)[C@@H](O)[C@H]1O [Inosine],scaled lipid accumulation score,[1],inactive: ≤ 0
same,scaled lipid accumulation score,[2],inactive: 0.002
O=c1[nH]cnc2c1ncn2[C@@H]1O[C@H](CO)[C@@H](O)[C@H]1O,scaled lipid accumulation score,[2],inactive: ≤ 0
CCOc1ccccc1OC(c1ccccc1)C1CNCCO1 (stereo not given) [Reboxetine mesylate],scaled lipid accumulation score,[1],inactive: 0.21
same,scaled lipid accumulation score,[2],inactive: 0.519 and inactive: ≤ -0.006
CC(C)Cn1c(=O)n(C)c(=O)c2[nH]cnc21 [3-Isobutyl-1-methylxanthine],scaled lipid accumulation score,[2],inactive: ≤ -0.055
"Cc1n[nH]c(=O)[nH]c1=O [Azathymine, 6]",scaled lipid accumulation score,,inactive: ≤ 0
O=C1NC(=O)/C(=C/c2ccc3c(c2)OC(F)(F)O3)S1,scaled lipid accumulation score,[3],inactive: 0.008
same,scaled lipid accumulation score,[1],inactive: ≤ 0
same,scaled lipid accumulation score,[2],inactive: ≤ 0 and inactive: 0.01
"OC[C@H]1O[C@@H](n2cnc3c(N[C@H]4CCC[C@@H]4O)ncnc32)[C@@H](O)C1O (stereo partly drawn) [Adenosine, N-(2-hydroxycyclopentyl)-, (1S-trans)- [CAS]]",scaled lipid accumulation score,[2],inactive: ≤ 0
CCCCOc1cc(CC2CNC(=O)N2)ccc1OC (stereo not given),scaled lipid accumulation score,[2],inactive: 0.187 and inactive: ≤ 0
same,scaled lipid accumulation score,library stock concentration: 18 mM,inactive: ≤ -0.006
COc1cc([C@@H]2c3cc4c(cc3[C@@H](O[C@@H]3O[C@@H]5CO[C@@H](c6cccs6)O[C@H]5[C@H](O)[C@H]3O)[C@H]3COC(=O)[C@H]23)OCO4)cc(OC)c1O [Teniposide],scaled lipid accumulation score,library stock concentration: 3 mM,inactive: ≤ 0
same,scaled lipid accumulation score,[1],inactive: 0.159
same,scaled lipid accumulation score,[2],inactive: 0.484 and inactive: 0.087
O=c1ccc2ccccc2o1 [Coumarin],scaled lipid accumulation score,[1],inactive: ≤ 0
same,scaled lipid accumulation score,[2],inactive: ≤ 0 and inactive: 0.012
CCc1cc2c(cc1N1CCC(N3CCOCC3)CC1)C(C)(C)c1[nH]c3cc(C#N)ccc3c1C2=O,scaled lipid accumulation score,[2],active: 1.17
COc1cc2c3cc1Oc1c(OC)c(OC)cc4c1[C@@H](Cc1ccc(OC(=O)c5ccc([N+](=O)[O-])cc5)c(c1)Oc1ccc(cc1)C[C@@H]3N(C)CC2)N(C)CC4 [E6 berbamine],scaled lipid accumulation score,library stock concentration: 6.6 mM,active: 0.933
CCCCCCCCCCCCCCCCOC[C@H](COP(=O)([O-])OCC[N+](C)(C)C)OC(=O)NC [Methylcarbamyl PAF C-16],scaled lipid accumulation score,[3],inactive: ≤ 0
CN(C)CCCN1c2ccccc2Sc2ccc(Cl)cc21 [Chlorpromazine],scaled lipid accumulation score,[2],inactive: 0.466
CN(C)CCCN1c2ccccc2Sc2ccc(Cl)cc21 [Chlorpromazine hydrochloride],scaled lipid accumulation score,,inactive: 0.717
same,scaled lipid accumulation score,[2],inactive: 0.259
CN(C)CCCN1c2ccccc2Sc2ccc(Cl)cc21,scaled lipid accumulation score,[2],inactive: 0.711
CN(C)CCCN1c2ccccc2Sc2ccc(Cl)cc21 [Chlorpromazine HCl],scaled lipid accumulation score,[1],inactive: 0.38
same,scaled lipid accumulation score,library stock concentration: 6.3 mM,inactive: 0.53
CO[C@H]1C[C@H](O[C@H]2[C@H](C)[C@@H](O[C@@H]3O[C@H](C)C[C@H](N(C)C)[C@H]3O)[C@@H](C)C[C@@]3(CO3)C(=O)[C@H](C)[C@@H](O)[C@@H](C)[C@@H](C)OC(=O)[C@@H]2C)O[C@@H](C)[C@@H]1O [Oleandomycin phosphate],scaled lipid accumulation score,,inactive: ≤ 0
same,scaled lipid accumulation score,[2],inactive: ≤ 0
O=C(O)[C@H]1O[C@@H](Oc2cc3oc(-c4ccccc4)cc(=O)c3c(O)c2O)[C@H](O)[C@@H](O)[C@@H]1O [Baicalin],scaled lipid accumulation score,[1],inactive: 0.015
same,scaled lipid accumulation score,[2],inactive: ≤ 0
CCN1CCC(n2cc(CNc3cc(Cl)c4ncc(C#N)c(Nc5ccc(F)c(Cl)c5)c4c3)nn2)CC1,scaled lipid accumulation score,library stock concentration: 80 uM,inactive: ≤ -0.009
same,scaled lipid accumulation score,library stock concentration: 400 uM,inactive: ≤ -0.009
same,scaled lipid accumulation score,[5],inactive: ≤ -0.009
Nc1ccc(S(=O)(=O)Nc2ccccn2)cc1 [Sulfapyridine],scaled lipid accumulation score,,inactive: ≤ 0
same,scaled lipid accumulation score,library stock concentration: 8 mM,inactive: ≤ 0
same,scaled lipid accumulation score,[2],inactive: ≤ 0
N#Cc1c(-c2ccccc2)no[n+]1[O-] [Furoxan],scaled lipid accumulation score,library stock concentration: 26.7 mM,active: 1
O=c1[nH]c(=O)c2ccccc2o1,scaled lipid accumulation score,[2],inactive: ≤ 0
Nc1ccn([C@@H]2O[C@H](CO)[C@@H](O)[C@@H]2O)c(=O)n1 [Cytosine-1-beta-D-arabinofuranoside hydrochloride],scaled lipid accumulation score,[2],inactive: ≤ 0
Nc1ccn([C@@H]2O[C@H](CO)[C@@H](O)[C@@H]2O)c(=O)n1 [Cytarabine],scaled lipid accumulation score,[2],inactive: ≤ 0
"Nc1ccn([C@@H]2O[C@H](CO)[C@@H](O)[C@@H]2O)c(=O)n1 [2(1H)-Pyrimidinone, 4-amino-1-?-D-arabinofuranosyl- [CAS]]",scaled lipid accumulation score,[2],inactive: ≤ 0
N=C(NC(=O)c1nc(Cl)c(N)nc1N)Nc1ccccc1 [Phenamil],scaled lipid accumulation score,library stock concentration: 16.4 mM,active: 1.07
O=S1(=O)c2cccc3cccc(c23)N1CCCN1CCN(c2ccc(F)cc2)CC1 [Fananserin],scaled lipid accumulation score,[2],inactive: 0.048
Cc1ccc(NC(=O)c2ccc(CN3CCN(C)CC3)cc2)cc1Nc1nc(-c2cccnc2)cs1 [Masitinib (AB1010)],scaled lipid accumulation score,[1],active: 1.13
same,scaled lipid accumulation score,[2],active: 0.856
CC#CCC(C)[C@@H](O)/C=C/[C@@H]1[C@H]2C/C(=C\CCCC(=O)O)C[C@H]2C[C@H]1O (stereo partly drawn) [5-cis-15(R)-Iloprost],scaled lipid accumulation score,[3],inactive: ≤ 0
COc1ccnc(C[S+]([O-])c2nc3cc(OC(F)F)ccc3[nH]2)c1OC (stereo not given),scaled lipid accumulation score,[2],inactive: ≤ 0
COc1ccnc(C[S+]([O-])c2nc3cc(OC(F)F)ccc3[nH]2)c1OC (stereo not given) [Pantoprazole],scaled lipid accumulation score,library stock concentration: 5.2 mM,inactive: 0.015 and inactive: ≤ 0
same,scaled lipid accumulation score,[2],inactive: ≤ -0.027
Cc1cc(C)c(S(=O)(=O)n2cc(C)cc2C)c(C)c1,scaled lipid accumulation score,[1],inactive: ≤ -0.009
same,scaled lipid accumulation score,[2],inactive: ≤ 0
Cc1[nH]c(C=C2C(=O)Nc3ccc(S(=O)(=O)N(C)c4cccc(Cl)c4)cc32)c(C)c1C(=O)N1CCN(C)CC1,scaled lipid accumulation score,[1],active: 1.39
same,scaled lipid accumulation score,[2],active: 1.27
Cc1[nH]c2ccccc2c1CCNCc1ccc(/C=C/C(=O)NO)cc1 [Panobinostat (LBH589)],scaled lipid accumulation score,[1],inactive: 0.728
same,scaled lipid accumulation score,[2],inactive: 0.587
CCCCC/C=C\C/C=C\C/C=C\C/C=C\CCCC(=O)C(F)(F)F [Arachidonyl Trifluoromethyl Ketone],scaled lipid accumulation score,[3],inactive: ≤ 0
CC(=O)N[C@@H](C=O)[C@@H](O)[C@H](O)[C@H](O)CO [Acetylglucosamine],scaled lipid accumulation score,[2],inactive: ≤ 0
C(/c1c2cccc1)(=C/CCN(C)C)\c3c(cccc3)C=C2.Cl [Cyclobenzaprine hydrochloride],scaled lipid accumulation score,,active: 0.86
O=C1C(=O)c2ccccc2C(O)=C1C1CCC(c2ccc(Cl)cc2)CC1 (stereo not given) [Atovaquone],scaled lipid accumulation score,[1],inactive: ≤ 0
same,scaled lipid accumulation score,[2],inactive: ≤ 0
CCN(CC)CCNC(=O)c1c(C)[nH]c(/C=C2\C(=O)Nc3ccc(F)cc32)c1C.O=C(O)C[C@H](O)C(=O)O [Sunitinib malate],scaled lipid accumulation score,[5],active: 0.997

# Source: the supplement of paper PMC9135407
